The values below come from PubChem BioAssay AID360 (National Center for Advancing Translational Sciences (NCATS), 2006).

Screen size: about 48,000 compounds; about 550 (1.1%) were called active. About 4% were inconclusive and are not listed. Rule as the data show it: active = potency below about 15 µM; inconclusive = mostly about 16 µM to 33 µM; inactive = weaker than that. This is one part of the list.
Potency is read from the fitted curve at half-maximal effect.

Chain of UniProt P04062 (P04062 whole entry, looked up): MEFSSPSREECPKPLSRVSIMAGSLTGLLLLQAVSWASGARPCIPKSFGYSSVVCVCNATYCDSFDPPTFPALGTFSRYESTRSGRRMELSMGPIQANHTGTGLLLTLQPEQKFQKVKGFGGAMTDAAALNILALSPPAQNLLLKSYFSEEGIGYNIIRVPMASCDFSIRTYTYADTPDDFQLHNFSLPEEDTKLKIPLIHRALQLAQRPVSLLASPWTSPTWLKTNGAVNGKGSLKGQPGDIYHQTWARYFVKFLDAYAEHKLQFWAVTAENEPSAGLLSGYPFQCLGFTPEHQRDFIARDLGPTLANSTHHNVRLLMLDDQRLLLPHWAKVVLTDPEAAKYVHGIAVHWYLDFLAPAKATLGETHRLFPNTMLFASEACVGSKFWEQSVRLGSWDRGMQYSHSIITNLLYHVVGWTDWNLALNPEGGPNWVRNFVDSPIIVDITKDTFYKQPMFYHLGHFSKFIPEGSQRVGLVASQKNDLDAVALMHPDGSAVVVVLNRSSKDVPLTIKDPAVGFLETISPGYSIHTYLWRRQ

In this assay the target is Lysosomal acid glucosylceramidase (Homo sapiens) (UniProt P04062). In words: Glucocerebrosidase.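 Also: the screen sought inhibitors.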 The conditions noted are these: purified enzyme, resorufin glucoside fluorescence (screen aimed at inhibitors), 20 min. The method in brief:
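Compounds titrated against 0.2 nM normal enzyme, 30 uM resorufin beta-D-glucopyranoside substrate, citrate/phosphate buffer with taurocholate and tween-20, pH 5.9. Reaction ran 20 min at room temperature; fluorescence (Ex 548/Em 600) gave AC50.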
On to `CC1(C)Cc2cccc(OCC(=O)N3CCN(S(=O)(=O)c4ccc(F)cc4)CC3)c2O1`, for which the Potency is inactive: > 76.9 µM.
The result for `COc1ccc2ccc(Oc3ncccn3)cc2c1` reads inactive: > 76.9 µM; that for `CC1(C)Oc2ccc(C(=O)N3CCCC3)cc2N(CC(=O)NCc2ccccc2)C1=O`, inactive: > 76.9 µM; that for `CCOC(=O)c1cnn(-c2ccccn2)c1N`, inactive: > 76.9 µM.
Turning to `CCOc1ccc(CCNC(=O)C2CCN(c3nnc(-n4cccc4)s3)CC2)cc1OCC`, the Potency is inactive: > 76.9 µM.
The result for `Cc1nn(-c2ccccc2)c2sc(C(=O)O)cc12` reads inactive: > 76.9 µM; that for `O=C(CCc1nc2ccccc2c(=O)[nH]1)OCC(=O)N1CCN(S(=O)(=O)c2ccccc2)CC1`, inactive: > 76.9 µM.
As for `Cc1cc(C)c2c(n1)nn1c(NCCCn3ccnc3)cc(C)nc21`, the Potency is inactive: > 76.9 µM.
The result for `O=C(COc1ccc(S(=O)(=O)N2CCOCC2)cc1)Nc1ccc(Cl)c(C(F)(F)F)c1` reads inactive: > 76.9 µM; that for `CC(C)CC(=O)N=C1SC2CS(=O)(=O)CC2N1CCc1ccccc1` (configuration not stated), inactive: > 76.9 µM.
Regarding `CC(C)CN(C(=O)COC(=O)C12CC3CC(CC(O)(C3)C1)C2)C1CCS(=O)(=O)C1` (configuration not stated), the Potency is inactive: > 76.9 µM.
To `CC(=O)c1c(NCCc2ccccc2)cc(C)oc1=O` belongs inactive: > 76.9 µM; to `CCCCCCc1nc2c(=O)[nH]c3ccccc3c2o1`, inactive: > 76.9 µM; to `CC(=O)c1cccc(NC(=O)c2ccc(NS(C)(=O)=O)cc2)c1`, inactive: > 76.9 µM.
As to `O=C(NCCCN1CCCC1=O)Nc1ccc(Cl)cc1`, the Potency was inactive: > 76.9 µM.
The result for `CC1Cc2ccccc2N1C(=O)CSc1nnnn1-c1ccc2c(c1)OCCO2` (configuration not stated) reads inactive: > 76.9 µM; that for `CC(=O)N(Cc1cccs1)C1CCOC(C)(C)C1` (configuration not stated), inactive: > 76.9 µM; that for `CCOC(=O)c1ccc(N2C(=O)c3n[nH]c(C)c3C2c2ccc(OC)cc2OC)cc1` (configuration not stated), inactive: > 76.9 µM.
In the case of `CCN(CC)CC(=O)Nc1c(C)cc(C(C)(C)C)cc1C`, the Potency was inactive: > 76.9 µM.
The result for `CCOC(=O)c1ccc(NC(=O)CCNS(=O)(=O)c2ccc3c(c2)oc(=O)n3C)cc1` reads inactive: > 76.9 µM; that for `COc1cccc(-n2c(SC)nnc2-c2cnccn2)c1`, inactive: > 76.9 µM; that for `CSc1n[nH]c(NCc2ccccc2)n1`, inactive: > 76.9 µM.
The result for `Cc1cccc(N2CCN(C(=O)c3ccc(NC(=O)C4CCCO4)cc3)CC2C)c1` (configuration not stated) reads inactive: > 76.9 µM; that for `CC(C)C(NC(=O)CC12CC3CC(CC(C3)C1)C2)C(=O)O` (configuration not stated), inactive: > 76.9 µM; that for `CCOC(=O)N1CCN(C(=O)CN(C2CCCCC2)S(C)(=O)=O)CC1`, inactive: > 76.9 µM.
For the compound `Cc1ccc(S(=O)(=O)CCC(=O)OCC(=O)Nc2ncc(Cl)cc2Cl)cc1`, the Potency is inactive: > 76.9 µM.
To `Cc1cc(-n2c(C)cc(C(=O)CN3C(=O)NC4(CCCC4)C3=O)c2C)no1` belongs inactive: > 76.9 µM.
To `O=C(CSc1nnc(-c2ccccn2)n1Cc1ccco1)c1ccccc1` belongs inactive: > 76.9 µM.
Take `CN(C(=O)C1CCCO1)c1nnc(-c2ccncc2)s1` (configuration not stated): the Potency was inactive: > 76.9 µM.
The result for `COc1ccc(C2=CC(c3ccc(OC)c(OC)c3)n3nnnc3N2)c(OC)c1` (configuration not stated) reads inactive: > 76.9 µM; that for `CCOC(=O)N1CCN(S(=O)(=O)c2ccc(C(=O)Nc3nc4ccc(F)cc4s3)cc2)CC1`, inactive: > 76.9 µM.
To `COc1ccccc1NC(=O)c1cc(S(=O)(=O)N2CCC3(CC2)OCCO3)ccc1F` belongs inactive: > 76.9 µM; to `Cc1nc(NC(=O)C2CC3CCCC(C2)C3=O)sc1C` (configuration not stated), inactive: > 76.9 µM; to `CCCN1C2CCCC1CC(NC(=O)c1ccccc1OCC)C2` (configuration not stated), inactive: > 76.9 µM.
To `O=C1CC(C(=O)Nc2ccc(Br)cc2)C2(CCCC2)O1` (configuration not stated) belongs inactive: > 76.9 µM; to `COCCN(C(=O)CNC(=O)c1ccco1)C(C(=O)NC1CCCCC1)c1cccc(OC)c1` (configuration not stated), inactive: > 76.9 µM; to `COc1ccc(NC(=O)CSc2nncs2)cc1OC`, inactive: > 76.9 µM.
With `CCOc1ccc(CCNC(=O)C2CCCN(c3nnc(-n4cccc4)s3)C2)cc1OCC` (configuration not stated), the Potency is inactive: > 76.9 µM.
`O=C(OCC(=O)N1CCN(C(=O)c2ccco2)CC1)c1ccccc1Cc1ccccc1`: the Potency is inactive: > 76.9 µM.
To `CC1CN(c2ccc(Oc3ccccc3)cc2)c2nc3c(c(=O)[nH]c(=O)n3C)n2C1` (configuration not stated) belongs inactive: > 76.9 µM; to `Nc1nnc(SCc2coc(-c3ccc(Cl)cc3)n2)s1`, inactive: > 76.9 µM.
To `CC(=O)NCCn1c(SCC(=O)OCc2ccccc2)nc2ccccc2c1=O` belongs inactive: > 76.9 µM; to `CCOC(=O)c1c(C)c(C(=O)NCCCOC(C)C)c(C)n1C`, inactive: > 76.9 µM; to `O=C(CCNS(=O)(=O)c1cccs1)Nc1nccs1`, inactive: > 76.9 µM.
The result for `Cc1cccc(NC(=O)CCn2ccnc2C)c1` reads inactive: > 76.9 µM; that for `CN(Cc1nc(-c2ccccn2)no1)S(=O)(=O)c1ccc(Br)cc1`, inactive: > 76.9 µM.
`Cc1onc(-c2ccccc2Cl)c1C(=O)NCCn1ccc2ccccc21`: the Potency was inactive: > 76.9 µM.
Regarding `COCCNC(=O)C1c2ccccc2C(=O)N(CCOC)C1c1ccc(F)cc1` (configuration not stated), the Potency was inactive: > 76.9 µM.
Take `Cc1ccc(-c2noc(C3CCCN(C(=O)c4ccc(F)cc4F)C3)n2)cc1` (configuration not stated): the Potency is inactive: > 76.9 µM.
To `COc1ccc(NC(=O)COc2ccccc2C#N)c(S(=O)(=O)N2CCCCC2)c1` belongs inactive: > 76.9 µM; to `O=C1CCC(C(=O)O)(c2ccccc2)C1` (configuration not stated), inactive: > 76.9 µM.
`O=C(NCc1ccccc1)C1CCCN(S(=O)(=O)c2cccnc2)C1` (configuration not stated): the Potency is inactive: > 76.9 µM.
In the case of `O=C(CN1CCN(c2nc(-c3ccc(Cl)cc3)cs2)CC1)NCc1ccco1`, the Potency was inactive: > 76.9 µM.
To `Cc1[nH]c2ccc(Br)cc2c(=O)c1CN1CCCCC1` belongs inactive: > 76.9 µM.
To `Cc1cccc(Cn2cnc3c(nnn3Cc3ccccc3F)c2=O)c1` belongs inactive: > 76.9 µM; to `Nc1nc(NCc2ccccc2)nc(-c2ccccc2)n1`, inactive: > 76.9 µM; to `COc1ccc(-c2ccc(-c3noc(-c4ccc(OC)c(OC)c4)n3)c(OC)n2)cc1`, inactive: > 76.9 µM.
